Measured values from publication PMC6323126.
Results are given in words; binding and its absence hold for the method and conditions named.

Target: T1, MST2 (recombinant, wildtype) (human), Q13188
T1 chain: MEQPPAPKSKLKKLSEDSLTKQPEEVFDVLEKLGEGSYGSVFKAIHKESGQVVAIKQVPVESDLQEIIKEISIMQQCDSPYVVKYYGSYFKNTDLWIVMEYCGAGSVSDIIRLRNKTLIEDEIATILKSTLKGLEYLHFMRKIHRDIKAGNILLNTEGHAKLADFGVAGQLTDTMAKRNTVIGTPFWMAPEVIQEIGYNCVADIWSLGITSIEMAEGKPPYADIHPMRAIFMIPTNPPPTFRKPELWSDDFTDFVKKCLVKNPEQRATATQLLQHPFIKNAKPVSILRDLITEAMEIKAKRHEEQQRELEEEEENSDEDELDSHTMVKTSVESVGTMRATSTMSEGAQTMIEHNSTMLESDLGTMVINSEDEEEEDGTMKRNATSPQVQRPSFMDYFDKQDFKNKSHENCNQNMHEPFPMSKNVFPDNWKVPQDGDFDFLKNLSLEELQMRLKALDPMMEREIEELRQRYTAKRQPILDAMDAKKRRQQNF
Assay: pull-down; MBP pulldown: MBP-tagged protein, partner and amylose resin mixed at 4 °C for 1 h in 20 mM HEPES (pH 7.5), 100 mM NaCl; eluted with 20 mM maltose; SDS-PAGE, Coomassie staining; both purified
Conditions: remark: other sources report otherwise

B1: SIKE1 (recombinant, limits not stated), Q9BRV8 1-207 (protein)
chain: MSCTIEKILTDAKTLLERLREHDAAAESLVDQSAALHRRVAAMREAGTALPDQYQEDASDMKDMSKYKPHILLSQENTQIRDLQQENRELWISLEEHQDALELIMSKYRKQMLQLMVAKKAVDAEPVLKAHQSHSAEIESQIDRICEMGEVMRKAVQVDDDQFCKIQEKLAQLELENKELRELLSISSESLQARKENSMDTASQAIK
binding: no binding
